Data reported in patent US4110472A, “Derivatives of 1-(disubstituted phenoxy)-3-amino-2-hydroxypropanes” (Bayer Aktiengesellschaft, priority 1975, dated 1978).

Test system: cerebral blood flow
Assay: Increase in the cerebral blood flow in cats (133 xenon clearance)
[1] = Table 1, intravenous, 2.5 mg/kg
[2] = Table 2, oral administration, 50 mg/kg

SMILES	Increase in the cerebral blood flow by % [1] [%]	Increase in the cerebral blood flow by % [2] [%]	Increase in the cerebral blood flow by % (Table 1, intravenous, 10 mg/kg) [%]	other results
C/C=C/c1ccc(OCC)c(OCC(O)CNC(c2ccccc2)c2ccccc2)c1 (stereo not drawn) [Compound A, 1-(2-ethoxy-5-trans-propenylphenoxy)-2-hydroxy-3-diphenylmethylaminopropane hydrochloride]	40	12		
C=CCc1ccc(OCC(O)CNC(c2ccccc2)c2ccccc2)c(OC)c1.Cl (centres unmarked) [Compound B, 1-(2-methoxy-4-allylphenoxy)-2-hydroxy-3-diphenylmethylaminopropane hydrochloride]		10	48	
C/C=C/c1ccc(OCC)c(OCC(O)CNC2c3ccccc3-c3ccccc32)c1 (stereo not drawn) [Compound C, 1-(2-ethoxy-5-trans-propenylphenoxy)-2-hydroxy-3-(9-fluorenylamino)-propane]	28			Increase in the cerebral blood flow by % (Table 2, oral administration, 25 mg/kg): 30%
OC(CNC(c1ccccc1)c1ccccc1)COc1ccc(Cl)c(Cl)c1 (centres unmarked) [Compound D, 1-(3,4-dichlorophenoxy)-2-hydroxy-3-diphenylmethylaminopropane]	77	44		
CN(C)CCCOC1(Cc2ccccc2)CCCCCC1 [bencyclan, reference compound]			30	Increase in the cerebral blood flow by % (Table 2, oral administration, up to 50 mg/kg): .phi.
CC[C@]12CCCN3CCc4c(n(c5ccccc45)[C@@](O)(C(=O)OC)C1)[C@@H]32 [vincamine, reference compound]				Increase in the cerebral blood flow by % (Table 1, intravenous, 8 mg/kg): 27%

Counter-ions that a name gives are not always drawn.
